We go through eleven molecules from the antibiotic and cytotoxicity screens of Wong et al. (2023).

The list shows a part of the results.

This assay relates to HepG2. Briefly: cytotoxicity call (relative viability < 0.9). The note with it: 10 µM.
For `Cc1noc(C)c1S(=O)(=O)N(C)C[C@H]1OCCCC[C@H](C)Oc2ccc(NC(=O)Nc3cccc4ccccc34)cc2C(=O)N([C@@H](C)CO)C[C@@H]1C`, the cytotoxicity call was “inactive”.
As for `C[C@H]1CN([C@@H](C)CO)C(=O)Cc2cc(NS(=O)(=O)c3cn(C)cn3)ccc2O[C@@H]1CN(C)S(=O)(=O)c1ccc(F)cc1`, the entry is “inactive”.
To `C[C@@H]1CN([C@H](C)CO)C(=O)c2cccc(NC(=O)Nc3ccc(C(F)(F)F)cc3)c2O[C@@H]1CN(C)S(C)(=O)=O` belongs “inactive”; to `Cc1cc(O)c(C(=O)/C=C/N(C)C)c(=O)o1`, “inactive”; to `C[C@H](CO)N1C[C@H](C)[C@H](CN(C)C(=O)CCC(F)(F)F)OCCCC[C@H](C)Oc2ccc(NC(=O)c3ccccc3)cc2C1=O`, “inactive”.
As for `COc1ccc(-c2oc3cc(OC)c(OC)c(OC)c3c(=O)c2OC)cc1OC`, the entry is “active”.
As to `COc1cccc(S(=O)(=O)N2C[C@@H](O)COC[C@H]3O[C@H](CC(=O)N4CCN(c5ccccc5)CC4)CC[C@@H]32)c1`, the cytotoxicity call is “inactive”.
To `CN(C)C(=O)c1cccc(-c2cccc(-c3nc(C(=O)N4CCCCC4)cc4c3[C@@H](CCO)N([S@](=O)C(C)(C)C)C4)c2)c1` belongs “inactive”; to `C[C@H]1CN([C@@H](C)CO)C(=O)Cc2cc(NC(=O)Cn3cnnn3)ccc2O[C@H]1CN(C)S(=O)(=O)c1cccs1`, “inactive”.
For `C[C@H]1CN([C@@H](C)CO)C(=O)c2cc(/C=C/c3ccccc3)cnc2O[C@H]1CN(C)S(=O)(=O)c1cn(C)cn1`, the cytotoxicity call is “inactive”.
As for `C[C@H](CO)N1C[C@H](C)[C@H](CN(C)Cc2ccc(C(=O)Nc3ccccc3N)cc2)Oc2ccc(NC(=O)CCN3CCOCC3)cc2CC1=O`, the entry is “inactive”.
